# Reference: article PMC7819943, “Rice protein-binding microarrays: a tool to detect cis-acting elements near promoter regions in rice”
# Some of the results follow.
# Biological target: T1, OsWOX13 (Oryza sativa, UniProt Q5QMM3 1-267)
# T1 sequence: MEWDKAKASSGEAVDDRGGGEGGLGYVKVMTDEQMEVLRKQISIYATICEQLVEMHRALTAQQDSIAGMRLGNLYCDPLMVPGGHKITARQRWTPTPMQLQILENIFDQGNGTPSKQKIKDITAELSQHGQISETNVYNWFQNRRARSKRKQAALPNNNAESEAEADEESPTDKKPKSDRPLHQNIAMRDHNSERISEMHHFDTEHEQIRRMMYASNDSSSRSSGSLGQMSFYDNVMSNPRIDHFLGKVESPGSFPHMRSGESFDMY
# Assay: protein-binding microarray (RPBM); PBS, 2% BSA, 51.3 ng/ul salmon testes DNA, 50 uM zinc acetate, 200 nM TF, 25 C, 1 h; high values mean tight binding
# Conditions: protein: recombinant; tags: N-terminal polyhistidine and DsRed monomer fusion (pET32a); label: CyDye5-dUTP incorporated in the synthesized complementary strand; 3' TTTTT single-stranded linker to array surface; dsDNA, one strand shown
# In short: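 Transcription factors, each fused N-terminally to a polyhistidine tag and DsRed, were expressed in E. coli BL21-CodonPlus and purified on Ni–NTA. A custom Agilent array was made double-stranded by primer extension with Cy5-dUTP and blocked with 2% BSA. It was incubated with 200 nM protein in PBS, 2% BSA, salmon testes DNA and 50 µM zinc acetate at 25 °C for 1 h, then washed. The binding signal is per-feature fluorescence intensity (arbitrary units) read on an Axon 4000B scanner.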
row,Sequence,binding signal
1,CTCCTTGATCTAATTAGCACGCACTACTATATCTCACCTACGGAGTCACCTAGTGCAG,26600 fluorescence intensity (a.u.)
2,ATTTTAATTTTAATTATTAATACTCCATTAGCATTTAGTTCGGAGTCACCTAGTGCAG,18200 fluorescence intensity (a.u.)
3,TTTTGATTGGCCGAGGAGAAGGCGAAACAGACTGCCACTGCGGAGTCACCTAGTGCAG,53800 fluorescence intensity (a.u.)
4,CTTAAATTACGTACTGATGCATATAGTTATCTGCTATCATCGGAGTCACCTAGTGCAG,23500 fluorescence intensity (a.u.)
5,TACTGGTGTACAATTTATAATTAATTAAAATATGGAATCACGGAGTCACCTAGTGCAG,8120 fluorescence intensity (a.u.)
6,GATTAACTGTGTTCTTTTCCAGCTATACATTGTACGTGTACGGAGTCACCTAGTGCAG,3400 fluorescence intensity (a.u.)
7,GATATGGTAATTTAGTGTCCATTATGGTGTTTCTTAATTGCGGAGTCACCTAGTGCAG,6660 fluorescence intensity (a.u.)
8,TACCATATATTGGGCCCCAATCTCAATAGAAGATTCTTCTCGGAGTCACCTAGTGCAG,10900 fluorescence intensity (a.u.)
9,ATGAGCTAATCATATATGATGATATTTGTTTATATTAGAACGGAGTCACCTAGTGCAG,7800 fluorescence intensity (a.u.)
10,GTATTGACAGCCACTCGGCCTATCCATTTTGCGTCCAATACGGAGTCACCTAGTGCAG,10700 fluorescence intensity (a.u.)
11,TGAAATTAATGCTGCAATTTTCAGCTTTGAGCTTGCAAGCCGGAGTCACCTAGTGCAG,3850 fluorescence intensity (a.u.)
12,TCTAAATTGTATTTCTATATGGACTCTAGTCTCCTCTTCACGGAGTCACCTAGTGCAG,14000 fluorescence intensity (a.u.)
13,TATTTTAGATTGATATACAATCTTTTGTGGTGTTAGCACTCGGAGTCACCTAGTGCAG,52900 fluorescence intensity (a.u.)
14,AGCGATGGTGGTGGTGGTGGTGGTGGTGGCTGGGTTGCTTCGGAGTCACCTAGTGCAG,7480 fluorescence intensity (a.u.)
15,TTAATTGTATCCTTCAACTCTACTACTCTACGGCCATTACCGGAGTCACCTAGTGCAG,4180 fluorescence intensity (a.u.)
16,ATATAATCATCACTATAAATAATAATTAAGATTTCCTATCCGGAGTCACCTAGTGCAG,10200 fluorescence intensity (a.u.)
17,CTCCATATTAGAGATATTGATAGATATACTAGCTAGCTGCCGGAGTCACCTAGTGCAG,4390 fluorescence intensity (a.u.)
18,CTATCAAATATCTGATGTAATCAATTTGTCACTAGACTACCGGAGTCACCTAGTGCAG,3230 fluorescence intensity (a.u.)
19,ATATAGTTGTGATTAATTAGTGAGTAGAGTGTGATACCTGCGGAGTCACCTAGTGCAG,22100 fluorescence intensity (a.u.)
20,ACATTACCAAATTTTAACAATGCCAAAATTTTGGTAAGGTCGGAGTCACCTAGTGCAG,3220 fluorescence intensity (a.u.)
21,ACCTGATGAATTGCAGGATTAGAGATGAACTCGTACTTTTCGGAGTCACCTAGTGCAG,9480 fluorescence intensity (a.u.)

row,Sequence,binding signal
1,AGTCCATTAGCCTAGCAGATTGGAGTATTATTCGGGCCATCGGAGTCACCTAGTGCAG,7010 fluorescence intensity (a.u.)
2,TTTACTCTTAGCAATCAATTTAGCATATTTATCTATTCTGCGGAGTCACCTAGTGCAG,9900 fluorescence intensity (a.u.)
3,CCTGATTTTGACAGTACACAAACACAATTCAAAACGGGCCCGGAGTCACCTAGTGCAG,25600 fluorescence intensity (a.u.)
4,TTCCAATTGACCAGGCCCTCAATCATACATCATGCACATCCGGAGTCACCTAGTGCAG,17500 fluorescence intensity (a.u.)
5,AGATGACTGAATAGTGAATTGATCTGTGAAAATTGTTCGACGGAGTCACCTAGTGCAG,20600 fluorescence intensity (a.u.)
6,TAAATTTTAAAATTTAAATTTTGACTTAGCATAAGTAAAACGGAGTCACCTAGTGCAG,9210 fluorescence intensity (a.u.)
7,TCTTCCTGATTTTCTCGCAGAGCTCCCCTGATTCGACCACCGGAGTCACCTAGTGCAG,3360 fluorescence intensity (a.u.)
8,ACATACGTATTAATTTCGTGATTTCCATATAATCAAAACACGGAGTCACCTAGTGCAG,5740 fluorescence intensity (a.u.)
9,GGATTTAATAATTAAACACAAGTATCACACCAACAATAAACGGAGTCACCTAGTGCAG,3930 fluorescence intensity (a.u.)
10,ACATTCCAAAATTTGACCAAATTTGTTCACTCGTTGACTGCGGAGTCACCTAGTGCAG,3660 fluorescence intensity (a.u.)
11,AAAGCTTATTAATTTGCTCCTAGACCAATGTATGCCGTGCCGGAGTCACCTAGTGCAG,3470 fluorescence intensity (a.u.)
12,CTTTTAACATGGCCCATAATTGCATCGGAAGCATGGGCTGCGGAGTCACCTAGTGCAG,11500 fluorescence intensity (a.u.)
13,GTACTACTAATAATTAATTTCTACAAGTTCTTCGATCGAGCGGAGTCACCTAGTGCAG,12700 fluorescence intensity (a.u.)
14,CCAAAATGATCATTATATATGTTTATGCATCAAGACCAAACGGAGTCACCTAGTGCAG,4860 fluorescence intensity (a.u.)
15,CTCGCATACTAACTGGACATGATCAGACTCCTAATTGTAACGGAGTCACCTAGTGCAG,6730 fluorescence intensity (a.u.)
16,GTTTGAATCTATCAATCAAACATGCACGTCAAACTTAATTCGGAGTCACCTAGTGCAG,12100 fluorescence intensity (a.u.)
17,AATTAATTATCATCATTACCGCAAATTCTCAAAAGTCAGGCGGAGTCACCTAGTGCAG,41200 fluorescence intensity (a.u.)
18,GCAATTGACGAGTGGCATTGCTTTCTCTATCATTTTATCACGGAGTCACCTAGTGCAG,11300 fluorescence intensity (a.u.)
19,CTAAAATTGGCACATCCTTAGAAAAGCGAATGCTTCGGTTCGGAGTCACCTAGTGCAG,8030 fluorescence intensity (a.u.)
20,TAATTAATAGATACAATTGCCTTCCCAGGACTCTATCCATCGGAGTCACCTAGTGCAG,14500 fluorescence intensity (a.u.)
21,TTAAATAGGCTTAATAAATTCATCTCATGGTTTACCGGCGCGGAGTCACCTAGTGCAG,6110 fluorescence intensity (a.u.)
